Results on 22 molecules are retold here after paper PMC12136788.

The list shows a part of the results.

B1: chr11:61589858:61589859:-_ENSMUSG00000004798_ENSMUST00000004920|mus_hu|motif|central (ssRNA)
RNA: GGGAGUUCUACAGUCCGACGAUCUUCAAGAAUAAUGCAUGCAGUUACAAAUGAGAGGUAGAAACACUGUAUUAAAGACCGGAAAAUACAAACGUCAUAUAAAUAAAUGUUCAAAUUAACUACUGGAAUUUCAUACAGAUAAAUCAACAGAGGAUUGAGCAUCA
B2: chr18:10004928:10004929:-_ENSMUSG00000047879_ENSMUST00000092096|mus_hu|motif|central (ssRNA)
RNA: GGGAGUUCUACAGUCCGACGAUCCUGAAGUCGCAAUUUAAGUCCUGUAAAAAGAUACUUGACUUCCUGAUUGAUAAAACAGCGGAGCUGAAGUUGAUUUUCCUUUCCUUUGGUGACUUCUUCUUCUUCAGAUUCUGUACAUUUCAACAGAGGAUUGAGCAUCA
B3: chr15:52101961:52101962:+_ENSG00000128872_ENST00000249700|hu_hu|FALSE|FALSE (ssRNA)
RNA: GGGAGUUCUACAGUCCGACGAUCUAUUUUCCUAUUCACUUGUUUUAUUGCUACUAGGCAACUCAGGAACACUCAGCUACUAAACAAAUUCUGGAAUUUGUUUAGUAACAAAUUACAGAGAAAAGAGGAAAAAAAAGACAAUGACAACAGAGGAUUGAGCAUCA
B4: chr12:39763582:39763583:-_ENSG00000139116_ENST00000544797|hu_mus|hu_hu_hu_mus_False|48_48 (ssRNA)
RNA: GGGAGUUCUACAGUCCGACGAUCCUCUAGGAACUGGGCAUUCACUUUGAAUUCAGGAGGGGGCAGCCCGUUUUUAAUCGCUGAGGUUUUUUUUUCUUCAAUACUCUUGAACAGGUGUCUAACAGCACGAGAGAUGAUGCCCUGCAACAGAGGAUUGAGCAUCA
B5: chr11:95532463:95532464:+_ENSG00000166037_ENST00000540830|hu_hu|FALSE|FALSE (ssRNA)
RNA: GGGAGUUCUACAGUCCGACGAUCCUUACUUGGGGAGCGUCGUAGAUCACUAUUAAGGAAAGGCUUAUCCGAAGGAUAUACUACAUAUGGAGAUGAAGAAUGCCGAACCAUGCUUCCAUUAGACCUUGAUGGCUCAGCAAAGCUCAACAGAGGAUUGAGCAUCA
B6: chr2:202488911:202488912:-_ENSG00000155755_ENST00000286196|hu_mus|hu_hu_hu_mus_False|58_108 (ssRNA)
RNA: GGGAGUUCUACAGUCCGACGAUCAUUUAACAUUUUUUCAUAAUCUCCAGUAGCAUUUCAGCAUUAUGUAACAAAAGAUCUAUUACAAAUACAUGUAUCUUAUAAAAAUACACUUAAAAACACGAGUGGGGAGCGCAGGCGCCACAACAGAGGAUUGAGCAUCA
B7: chr12:16048344:16048345:+_ENSG00000023734_ENST00000419869|hu_hu|hu_hu_hu_mus_True|18_68 (ssRNA)
RNA: GGGAGUUCUACAGUCCGACGAUCAGAUCGUCCAUAAGUAAUAACCAAAAUCUCUCCUUCAGGAAUAUAUUCCAUACUGCUAACAGACAUAUUAAAAUUCAGAGAUUUCACUUCUGUCAUAGUAGCAUGAUCCCAGAGCCGAACCAACAGAGGAUUGAGCAUCA
B8: chr1:88243738:88243739:-_ENSMUSG00000026234_ENSMUST00000027438|mus_mus|motif|central (ssRNA)
RNA: GGGAGUUCUACAGUCCGACGAUCCAUGAGUUCAAUCCCCAGUAAUCACAUGGUGGCUCUCAAUAAUCUGUAAUGGGAUUCGGUGCCCUCUUCUGGUGUGUCUGAAGACAGCUACAGUGUACUCAUAUACAUAAAAUAAAAAUCCAACAGAGGAUUGAGCAUCA
B9: chr3:100366718:100366719:-_ENSMUSG00000008763_ENSMUST00000008907|mus_hu|motif|central (ssRNA)
RNA: GGGAGUUCUACAGUCCGACGAUCAUUCUUAAAGAAAAAUCUAUUAUCUGUUAGCAUGAUUGGAGCACUGCAAUGUAUAUGCGGGUAAUAUGGUGUGUAAUUUCACAAGCAAUUUUAUGAGUUCUGCAAUUGCUAGGCUCAAACCAACAGAGGAUUGAGCAUCA
B10: chr20:42825305:42825306:-_ENSG00000132823_ENST00000255174|hu_hu|motif|central (ssRNA)
RNA: GGGAGUUCUACAGUCCGACGAUCAUUAAAUCAGAGACGGUUUAAAUCAGUCUUGUAACUUCUAAUAUUCUGGGCUGGCAACGGCAGCAUGACAAAUGUUUAGUGCAGUUACAAAAUCACAUUUUACUUUCCUUGGCUAGCAAACAACAGAGGAUUGAGCAUCA
B11: chr16:2758876:2758877:+_ENSG00000167977_ENST00000301738|hu_mus|FALSE|FALSE (ssRNA)
RNA: GGGAGUUCUACAGUCCGACGAUCAAGUUUUAAUAUCAUUAAAUUAAAAAAACAGAAACAAAAACCCCCAGAAGCCUAUCUAUUGUCAAAGUCAUAAAUGAAGCAAUGCUGAGUGUCCAGCCACUCCCCAGAGCAUCCCCAUGGCAACAGAGGAUUGAGCAUCA
B12: chr12:103220134:103220135:+_ENSMUSG00000041781_ENSMUST00000047357|mus_hu|motif|central (ssRNA)
RNA: GGGAGUUCUACAGUCCGACGAUCGAAAGGGUAGUUAAUUUGAUAAUAGACGUCAUUUUUUUUGGUCCAGAAACAGCAAGCGGGAAGAGUUGAUAUCUUAGUCGUAUAUAUGAUGAAACACCAGGAAUUCUGAAGAGUUCUUUACAACAGAGGAUUGAGCAUCA
B13: chr1:163112212:163112213:-_ENSG00000143248_ENST00000313961|hu_hu|hu_hu_hu_mus_False|78_98 (ssRNA)
RNA: GGGAGUUCUACAGUCCGACGAUCUUUUAUUAUCAGUAAGCAUGAGUUACAUACUAGAUAAAGUAUUGGAUACAAUAAUCAGGAAACAAACACUAUUGGUCCAGAAUUUAAAACUUUAUGAGCGAAGUGCUGGCACAGGACUUACAACAGAGGAUUGAGCAUCA
B14: 14279964_14280084_3095_CDS_ENSMUSG00000039219_ENSMUST00000039538|mouse|control|control (ssRNA)
RNA: GGGAGUUCUACAGUCCGACGAUCCUGACUAGCUUCUGUUAUAGUGACUGAAGAAGGCGACUCUGGUGUGGUAGGUGGGGUAUUGAGCACUGAAUUACUGCCACUGCUCGGAAAUUCUGUUUUCCUAUCACUAACUUCUAGGGGCAACAGAGGAUUGAGCAUCA
B15: chr15:4003764:4003765:+_ENSMUSG00000022186_ENSMUST00000110690|mus_mus|FALSE|FALSE (ssRNA)
RNA: GGGAGUUCUACAGUCCGACGAUCAUAUUUGAUGGGUGAUCCUCCUUCCUGUACCAGAGUCCCAUACCCUGUGCUGGUGUAGAAGGCAGGGACUCCAGCUCCACCGGCACGGAUCCUCUCGGCAAGUGUGCCCUGAGGUGUCAGCAACAGAGGAUUGAGCAUCA
B16: chr1:220273833:220273834:+_ENSG00000067704_ENST00000302637|hu_hu|FALSE|FALSE (ssRNA)
RNA: GGGAGUUCUACAGUCCGACGAUCAUCCCAGCCGGGCACAAAAUGUAUUUUGGAGCCAUUCAUCAUAUGGAAUCGAUUGGCUAUGUCUUUCAAAAUCUUAUUUAAAGCAUGUCCAACAUGAGGGUCACCGUUUGCAUAAGGAGGCAACAGAGGAUUGAGCAUCA
B17: chr12:3367242:3367243:+_ENSMUSG00000020668_ENSMUST00000020999|mus_mus|FALSE|FALSE (ssRNA)
RNA: GGGAGUUCUACAGUCCGACGAUCGUUAUCAUCUUCCUCUUCGGCCACCCAGGCCUCAAUCACGGACCCCUCUGGAUAGCCGGCUGGGGCAGACACGGCCUUCUUUCUACGACUGCUCUUUCUCCGAGGUCGCUUGCCCAGCAUCAACAGAGGAUUGAGCAUCA
B18: chr11:50193004:50193005:+_ENSMUSG00000007850_ENSMUST00000069304|mus_hu|FALSE|FALSE (ssRNA)
RNA: GGGAGUUCUACAGUCCGACGAUCUGAUUCAAGUUCAACAAAAGCCUCGCCACUUGGUCUGCCUUCUCUGGUGUAGAUGAAACGAAUACCUUGAGCCCCAUUUUGAAUUUUGCAGUCAGAAAAAAACCUCUGCACUUCAUCGGCCAACAGAGGAUUGAGCAUCA
B19: chr6:41757443:41757444:+_ENSG00000214736_ENST00000398881|hu_mus|hu_hu_hu_mus_False|8_58 (ssRNA)
RNA: GGGAGUUCUACAGUCCGACGAUCGAACCGUGCAGAGGCAACAUCUCAGCCGACACUGGGGGAUGGGGGGGCAGUGGGAAACUAGGCAGGCAAGGAGAGGGAGUCAACUUCAGCUGCCACUCAGGUAGCUGCCAUCAGUCACAGCAACAGAGGAUUGAGCAUCA
B20: chr2:232320318:232320319:-_ENSG00000115053_ENST00000322723|hu_hu|hu_hu_hu_mus_True|18_108 (ssRNA)
RNA: GGGAGUUCUACAGUCCGACGAUCACUGUUGAAGUCUACAAAACCAAACCCUUUGGAAGAACCAGUUUCCCGAUCAGUGACUAUUCUUGCACGAACAGAGCCCUCAAAUGAUUCUUUUAAUGUCUCUUCAGUGGUAUCCUCAGACAACAGAGGAUUGAGCAUCA
B21: 7371406_7376421_261_ncRNA_ENSMUSG00000031153_ENSMUST00000132456|mouse|control|control (ssRNA)
RNA: GGGAGUUCUACAGUCCGACGAUCGCAAAGCUUGCUGAACUCGGCCAUAAGUGUACUGUUCUGCAAACGGAAGUCCUCCUCCUGGCUGUGCAGCUUUGCCUGCAGCAUCUCAUUUUCACUCAGCAGUACCUCCACUUCCUGAGCCAACAGAGGAUUGAGCAUCA
B22: 64764304_64764424_3119_3pUTR_ENSMUSG00000059920_ENSMUST00000076991|mouse|control|control (ssRNA)
RNA: GGGAGUUCUACAGUCCGACGAUCUUUUUCAAAAGAAAACAUAAAGUAUAAAAUCAAACUGAAUUUCCAAAACCCAAGUAGAGGUAGAAAGUGGAUAAGAAUGUGAUCUGGUUGUUUUGCCUUAUAAACAAGAAAAUUAUUUUUCAACAGAGGAUUGAGCAUCA

The test deals with T1, UNK ZnF1-3 (human, UniProt Q9C0B0 31-174).
T1 sequence: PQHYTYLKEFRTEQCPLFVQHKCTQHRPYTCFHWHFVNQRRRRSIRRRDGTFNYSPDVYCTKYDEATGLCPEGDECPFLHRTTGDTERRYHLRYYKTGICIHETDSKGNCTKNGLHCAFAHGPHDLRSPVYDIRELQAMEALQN
The experiment in a line: nsRBNS (natural sequence RNA bind-n-seq); RBNS binding buffer (assumed for nsRBNS): 25 mM Tris pH 7.5, 150 mM KCl, 3 mM MgCl2, 0.01% Triton X-100, 500 ug/ml BSA, 20 U/ml SUPERase-In, 4 C; UNK is unkempt and MSI1 is Musashi-1; names of the RNAs are library labels; protein concentration not given here; high values mean tight binding.
As to B1, the binding signal was 1.5 enrichment R.
To B2 belongs 0.67 enrichment R; to B3, 1.28 enrichment R; to B4, 1.47 enrichment R.
To B5 belongs 0.815 enrichment R; to B6, 1.08 enrichment R; to B7, 0.875 enrichment R.
In the case of B8 it was 1.99 enrichment R; in that of B9, 1.12 enrichment R; in that of B10, 0.934 enrichment R.
B11 displayed a binding signal of 2.83 enrichment R.
Take B12: the binding signal stood at 2.09 enrichment R.
To B13 belongs 1.44 enrichment R; to B14, 1.07 enrichment R; to B15, 0.471 enrichment R.
In the case of B16 it was 1.6 enrichment R; in that of B17, 0.614 enrichment R; in that of B18, 1.26 enrichment R.
In turn, B19 registered a binding signal of 2.26 enrichment R.
In the case of B20 it was 0.906 enrichment R; in that of B21, 0.708 enrichment R; in that of B22, 2.02 enrichment R.
